From the supplement of paper PMC4604168 (melanoma cell lines)
This is one part of the list. Many values rest on one well or one pass, so single values are uncertain.

Experiments:
Experiment in all cases: cell count relative to DMSO control; melanoma cells; higher = more viable cells
Details in all cases: library dose: low library concentration; 72 h
COLO792 = tested on: COLO792
COLO800 = tested on: COLO800
COLO829 = tested on: COLO829
G361 = tested on: G361
IPC-298 = tested on: IPC-298
IST-MEL1 = tested on: IST-MEL1
LB2518-MEL = tested on: LB2518-MEL
LOXIMVI = tested on: LOXIMVI
MEL-HO = tested on: MEL-HO
MZ2-MEL = tested on: MZ2-MEL
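Further: cell number obtained by counting DAPI-stained nuclei in high-throughput microscope images with image analysis software, screen run in 1,536-well plates.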

Row | SMILES | cell count (COLO792) [%] | cell count (COLO800) [%] | cell count (COLO829) [%] | cell count (G361) [%] | cell count (IPC-298) [%] | cell count (IST-MEL1) [%] | cell count (LB2518-MEL) [%] | cell count (LOXIMVI) [%] | cell count (MEL-HO) [%] | cell count (MZ2-MEL) [%]
1 | COc1cc2ncnc(Nc3ccc(Oc4ccccc4)cc3)c2cc1OC + Oc1nc(-c2ccc(C(F)(F)F)cc2)nc2c1CSCC2 [XAV939] (first compound 2 µM, partner dose 2 µM) | 77 | 128 | 115 | 91.4 | 92.5 | 107 | 122 | 106 | 101 | 85.5
2 | COc1ccc(-c2ccc3c(N4CCOCC4)nc(N4C[C@@H](C)O[C@@H](C)C4)nc3n2)cc1CO + Oc1cc(-c2nc(-c3ccccc3)[nH]c2-c2ccncc2)ccc1Cl [L779450] (first compound 0.02 µM, partner dose 0.2 µM) | 97.3 | 104 | 99.6 | 85.3 | 71.5 | 101 | 84.6 | 109 | 79.6 | 76.8
3 | O=S(=O)(c1ccccc1)N(CC(F)(F)F)c1ccc(C(O)(C(F)(F)F)C(F)(F)F)cc1 + Oc1cc(-c2nc(-c3ccccc3)[nH]c2-c2ccncc2)ccc1Cl [L779450] (first compound 1.4 µM, partner dose 0.2 µM) | 92.6 | 90 | 78 | 79.1 | 64.7 | 114 | 94.2 | 85.6 | 85.4 | 70.8
4 | COc1ccc(COc2ccc(Cc3cnc(N)nc3N)cc2OC)cc1 + O=C(O)C(=O)Nc1sc2c(c1C(=O)O)CCNC2 [TCS401] (first compound 1 µM, partner dose 1.66667 µM) | 95.5 | 93.6 | 99.3 | 85.5 | 98.6 | 95.2 | 103 | 97.4 | 146 | 92.9
5 | COc1ccc2c(c1)CCC1C2CCC2(C)C(NCCCCCCN3C(=O)C=CC3=O)CCC12 (stereo not given) + COc1ccc(-c2ccc3c(N4CCOCC4)nc(N4C[C@@H](C)O[C@@H](C)C4)nc3n2)cc1CO [KU0063794] (first compound 0.4 µM, partner dose 0.02 µM) | 101 | 126 | 47.5 | 96.5 | 95.2 | 92.2 | 90.3 | 98.7 | 113 | 90.2
6 | COC(=O)c1sccc1S(=O)(=O)Nc1ccc(Nc2ccccc2)cc1OC + COc1ccc(COc2ccc(Cc3cnc(N)nc3N)cc2OC)cc1 [GW2580] (first compound 1 µM, partner dose 1 µM) | 96.5 | 62.6 | 113 | 106 | 98.3 | 104 | 106 | 113 | 100 | 95.1
7 | COc1ccc(-c2ccc3c(N4CCOCC4)nc(N4C[C@@H](C)O[C@@H](C)C4)nc3n2)cc1CO + O=S(=O)(c1ccccc1)N(CC(F)(F)F)c1ccc(C(O)(C(F)(F)F)C(F)(F)F)cc1 [T0901317] (first compound 0.02 µM, partner dose 1.4 µM) | 93.6 | 132 | 77.5 | 83.1 | 88.6 | 108 | 116 | 79.8 | 84.5 | 85.5
8 | Oc1cc(-c2nc(-c3ccccc3)[nH]c2-c2ccncc2)ccc1Cl + c1cc(-c2cnn3cc(-c4ccc(OCCN5CCCCC5)cc4)cnc23)ccn1 [Dorsomorphin] (first compound 0.2 µM, partner dose 0.4 µM) | 96.3 | 81 | 101 | 86.4 | 84.4 | 98 | 87.2 | 131 | 84.2 | 84.4
9 | COc1ccc2c(c1)CCC1C2CCC2(C)C(NCCCCCCN3C(=O)C=CC3=O)CCC12 (stereo not given) + c1cc(-c2cnn3cc(-c4ccc(OCCN5CCCCC5)cc4)cnc23)ccn1 [Dorsomorphin] (first compound 0.4 µM, partner dose 0.4 µM) | 93.5 | 58.5 | 104 | 97 | 99.3 | 97.4 | 111 | 78.7 | 100 | 97.3
10 | CCN(CC)CCCCNc1ncc2cc(-c3cc(OC)cc(OC)c3)c(NC(=O)NC(C)(C)C)nc2n1 + Cc1cc([N+](=O)[O-])ccc1NS(=O)(=O)c1cc(Cl)ccc1Cl [FH535] (first compound 0.1 µM, partner dose 1 µM) | 96 | 142 | 92.4 | 91.4 | 93.5 | 90.7 | 76.2 | 93.8 | 86.5 | 87.5
11 | COC(=O)c1sccc1S(=O)(=O)Nc1ccc(Nc2ccccc2)cc1OC + O=c1cc(-c2cccc3c2Sc2ccccc2S3)oc(N2CCOCC2)c1 [KU55933] (first compound 1 µM, partner dose 1 µM) | 111 | 121 | 98.2 | 85 | 96.1 | 99.6 | 127 | 127 | 88.4 | 102
12 | N#Cc1c(O)c2c(-c3ccc(-c4ccccc4O)cc3)csc2[nH]c1=O + c1cc(-c2cnn3cc(-c4ccc(OCCN5CCCCC5)cc4)cnc23)ccn1 [Dorsomorphin] (first compound 2 µM, partner dose 0.4 µM) | 97.4 | 92.6 | 88 | 101 | 103 | 97.5 | 93.4 | 108 | 102 | 98.8
13 | COc1ccc(COc2ccc(Cc3cnc(N)nc3N)cc2OC)cc1 + CCCCCCCCCCCC1=C(O)C(=O)C=C(O)C1=O [Embelin] (first compound 1 µM, partner dose 1.2 µM) | 95.4 | 72.3 | 90.3 | 93.2 | 104 | 97.1 | 98.9 | 116 | 86.8 | 98.6
14 | O=C1NC(=O)/C(=C/c2ccc(-c3ccc(F)cc3O)o2)S1 + O=c1cc(-c2cccc3c2Sc2ccccc2S3)oc(N2CCOCC2)c1 [KU55933] (first compound 1 µM, partner dose 1 µM) | 99.7 | 125 | 132 | 76.2 | 102 | 108 | 106 | 110 | 95 | 96.6
15 | CCN(CC)CCCCNc1ncc2cc(-c3cc(OC)cc(OC)c3)c(NC(=O)NC(C)(C)C)nc2n1 + O=C1NC(=O)/C(=C/c2ccc(-c3ccc(F)cc3O)o2)S1 [AS252424] (first compound 0.1 µM, partner dose 1 µM) | 108 | 98.1 | 96.2 | 87.4 | 99.8 | 96.3 | 95.2 | 117 | 90.1 | 102
16 | COc1ccc(COc2ccc(Cc3cnc(N)nc3N)cc2OC)cc1 + O=c1cc(-c2cccc3c2Sc2ccccc2S3)oc(N2CCOCC2)c1 [KU55933] (first compound 1 µM, partner dose 1 µM) | 115 | 130 | 65.3 | 93.4 | 100 | 105 | 115 | 121 | 102 | 97.3
17 | Cn1cc(/C=C2\C(=O)Nc3cccnc32)c2ccccc21 + O=c1cc(-c2cccc3c2Sc2ccccc2S3)oc(N2CCOCC2)c1 [KU55933] (first compound 0.4 µM, partner dose 1 µM) | 106 | 130 | 119 | 80.8 | 94.4 | 97.4 | 115 | 98.5 | 79.1 | 91
18 | COC(=O)c1sccc1S(=O)(=O)Nc1ccc(Nc2ccccc2)cc1OC + COc1ccc2c(c1)CCC1C2CCC2(C)C(NCCCCCCN3C(=O)C=CC3=O)CCC12 [U73122] (first compound 1 µM, partner dose 0.4 µM) | 83.8 | 95.3 | 87.8 | 101 | 98.8 | 94.5 | 102 | 137 | 115 | 90.3
19 | CCN(CC)CCCCNc1ncc2cc(-c3cc(OC)cc(OC)c3)c(NC(=O)NC(C)(C)C)nc2n1 + c1cc(-c2cnn3cc(-c4ccc(OCCN5CCCCC5)cc4)cnc23)ccn1 [Dorsomorphin] (first compound 0.1 µM, partner dose 0.4 µM) | 90.3 | 84.8 | 103 | 86.9 | 106 | 100 | 85.3 | 131 | 93 | 89.6
20 | O=C(O)C(=O)Nc1sc2c(c1C(=O)O)CCNC2 + Cc1cc([N+](=O)[O-])ccc1NS(=O)(=O)c1cc(Cl)ccc1Cl [FH535] (first compound 1.66667 µM, partner dose 1 µM) | 89.9 | 132 | 86 | 89.1 | 97.7 | 94 | 109 | 91.5 | 90.6 | 99.6
21 | N#Cc1c(O)c2c(-c3ccc(-c4ccccc4O)cc3)csc2[nH]c1=O + COc1ccc(-c2ccc3c(N4CCOCC4)nc(N4C[C@@H](C)O[C@@H](C)C4)nc3n2)cc1CO [KU0063794] (first compound 2 µM, partner dose 0.02 µM) | 97.4 | 101 | 87.1 | 106 | 97.2 | 100 | 105 | 121 | 91.4 | 98.6
22 | COc1cc(N2CCC(N3CCN(C)CC3)CC2)ccc1Nc1ncc(Cl)c(Nc2ccccc2S(=O)(=O)C(C)C)n1 + CCCCCCCCCCCC1=C(O)C(=O)C=C(O)C1=O [Embelin] (first compound 0.08 µM, partner dose 1.2 µM) | 103 | 86.9 | 100 | 94 | 107 | 110 | 110 | 125 | 78.6 | 99.3
23 | Oc1cc(-c2nc(-c3ccccc3)[nH]c2-c2ccncc2)ccc1Cl + Oc1nc(-c2ccc(C(F)(F)F)cc2)nc2c1CSCC2 [XAV939] (first compound 0.2 µM, partner dose 2 µM) | 86.8 | 96 | 84.1 | 84.9 | 88.5 | 86.8 | 91.2 | 139 | 79.7 | 80.9
24 | COC(=O)c1sccc1S(=O)(=O)Nc1ccc(Nc2ccccc2)cc1OC + CCCCCCCCCCCC1=C(O)C(=O)C=C(O)C1=O [Embelin] (first compound 1 µM, partner dose 1.2 µM) | 112 | 90.3 | 115 | 104 | 103 | 98 | 84.2 | 136 | 93.3 | 96.3
